Source: PubChem BioAssay AID1362 (SRMLSC, 2008)
This is one part of the list. These are further read-outs of the screen, such as a control signal, another cell line or another target. No call is given for them. Compounds called inactive in the main read-out are mostly missing here.

Assay: growth inhibition of WT strain, primary screen, mitochondrial fusion inhibitor project, WT and mutant strains, chemical genetic (AID 1362); further: tested in S. cerevisiae
Conditions: mitochondrial fusion phenotypic screen, at 10 µM

**Q.** Which inhibition does the source give for `CC1CC(C)(C)N2C(=O)C3(Nc4ccccc4S3)c3cccc1c32` (stereo not given) here?
**A.** 11.5%

**Q.** For `Oc1ccc(-c2nc3c4c(ncn3n2)-c2ccccc2CC42CCCC2)cc1`, which inhibition is on record?
**A.** 89.4%

**Q.** Which inhibition does the source give for `COc1ccc(NS(=O)(=O)c2ccc3oc(Nc4ccc5c(c4)OCCO5)nc3c2)cc1` here?
**A.** 19.6%

**Q.** For `CC(Nc1ccc(Br)cn1)c1cc(Cl)ccc1O` (stereo not given), which inhibition is on record?
**A.** 54.5%

**Q.** Which inhibition does the source give for `CC1=CC(C)(C)N(S(=O)(=O)c2ccc(C)cc2)c2cc(C)ccc21` here?
**A.** 20.9%

**Q.** With `COc1c(C(=O)Nc2ccc(Cc3ccncc3)cc2)ccc2ccccc12` as the compound, how does the inhibition read?
**A.** 28.5%

**Q.** For `CCOc1ccc(-n2c(SCC(=O)Nc3cc(C)on3)nnc2-c2c[nH]c3ccccc23)cc1`, which inhibition is on record?
**A.** 5.63%

**Q.** Which inhibition does the source give for `Clc1ccc(N=c2ssnc2Cl)nc1` here?
**A.** 66.8%

**Q.** For `CC1=CN2C(=N)/C(=C/c3ccc(Sc4ccc(C)cc4)o3)C(=O)N=C2S1`, which inhibition is on record?
**A.** -3.95%

**Q.** With `CC(C)=CCc1c(O)c(CC=C(C)C)c2c(c1O)C(=O)CC(c1ccc(O)cc1)O2` (stereo not given) as the compound, how does the inhibition read?
**A.** 18.9%

**Q.** With `COc1ccc(-c2noc(CSc3nnc(Cc4ccccc4)n3-c3ccc(Cl)cc3)n2)cc1` as the compound, how does the inhibition read?
**A.** 8.85%

**Q.** Which inhibition does the source give for `C/C(CCN1CCc2nc(-c3ccccc3)c(-c3ccccc3)cc2C1)=N\OC[C@@H](C)[C@H](OCc1ccccc1)C(C)C` here?
**A.** 5.32%

**Q.** Which inhibition does the source give for `CCOC(=O)C1(CCOc2ccccc2)CCN(Cc2ccc3nonc3c2)CC1` here?
**A.** 37.1%

**Q.** With `COc1ccc(-c2nnc(NC(=O)c3ccccc3C)o2)cc1` as the compound, how does the inhibition read?
**A.** 45.1%

**Q.** Which inhibition does the source give for `Cc1c(C#N)c(N=CN(C)C)c(C(=O)c2ccc(Br)cc2)n1-c1ccc(Cl)cc1` here?
**A.** 36.3%

**Q.** For `Cc1cc(OCCCn2ccnc2)cc(C)c1Cl`, which inhibition is on record?
**A.** 59.6%

**Q.** Which inhibition does the source give for `Cc1ccc(NNC(=O)C(O)(c2cccc(C(F)(F)F)c2)c2cccc(C(F)(F)F)c2)cc1` here?
**A.** 11.3%

**Q.** With `Cc1cccc(C)c1OCC(O)Cn1c2ccccc2c2ccccc21` (stereo not given) as the compound, how does the inhibition read?
**A.** 45.7%

**Q.** For `Cc1ccc(NCc2nc3ccccc3n2CCOc2ccccc2)cc1`, which inhibition is on record?
**A.** 34.1%

**Q.** For `CN(C(=O)/C(N=Nc1cccc(C(F)(F)F)c1)=C(\O)C(F)(F)F)c1ccccc1`, which inhibition is on record?
**A.** 41.4%

**Q.** Which inhibition does the source give for `O=C(Nc1ccc(Cl)cc1)N1CCN(c2ccc3nnc(-c4ccc(F)cc4)n3n2)CC1` here?
**A.** -3.09%

**Q.** With `Cc1ccsc1/C=N/NC(=S)NCCc1ccccc1` as the compound, how does the inhibition read?
**A.** 65.9%

**Q.** For `Cc1ccccc1NC(=S)N(Cc1cccs1)C1CCCCC1`, which inhibition is on record?
**A.** 42.8%

**Q.** With `CCN(CC)CCOC(=O)c1ccc(NC(=O)c2cn(-c3ccccc3)nc2-c2cccs2)cc1` as the compound, how does the inhibition read?
**A.** 88.8%

**Q.** Which inhibition does the source give for `S=c1[nH]nc(CSCc2ccccc2Cl)n1C1CCCCC1` here?
**A.** 44.5%

**Q.** Which inhibition does the source give for `CC(=O)Nc1ccc(C(=O)OCC(=O)Nc2ccccc2Sc2ccccc2)cc1` here?
**A.** 42.6%

**Q.** Which inhibition does the source give for `CC(C)(C)C(=O)Nc1ccnc(-c2cccnc2)n1` here?
**A.** 34.9%

**Q.** With `CCCCNC(=S)N/N=C/C1=CCC2CC1C2(C)C` (stereo not given) as the compound, how does the inhibition read?
**A.** 54.9%

**Q.** For `COc1ccccc1/C=C/C=N\N1CCN(Cc2ccccc2Cl)CC1`, which inhibition is on record?
**A.** 5.72%

**Q.** Which inhibition does the source give for `Cc1cc(C)cc(NC(=S)NC2CC3CCC(C2)N3Cc2ccco2)c1` (stereo not given) here?
**A.** 1.07%

**Q.** Which inhibition does the source give for `NNC(=O)c1ccc2nc(-c3ccc(Br)cc3)cn2c1` here?
**A.** 66.4%

**Q.** Which inhibition does the source give for `CCC(C)(C)NC(=O)CN(C(=O)c1snc(C(N)=O)c1N)c1ccc2c(c1)OCCO2` here?
**A.** 12.2%

**Q.** For `Fc1ccc(-c2csc(=S)[nH]2)cc1`, which inhibition is on record?
**A.** 46.2%

**Q.** With `Nc1ccc(N2CCCCC2)cc1N1CCCCC1` as the compound, how does the inhibition read?
**A.** 38.1%

**Q.** Which inhibition does the source give for `CC(NC(=S)Nc1cccc(C(F)(F)F)c1)C(C)(C)C` (stereo not given) here?
**A.** 25.1%

**Q.** For `CC1CCCN(CC(=O)Nc2ccc(S(=O)(=O)NC3CCCCC3)cc2)C1` (stereo not given), which inhibition is on record?
**A.** 96.9%

**Q.** For `CCc1cccc(C)c1NC(=S)NCCc1c(C)[nH]c2ccc(C)cc12`, which inhibition is on record?
**A.** -14.1%

**Q.** For `Cc1cccc(OCCn2c(NC(=O)c3ccco3)nc3ccccc32)c1`, which inhibition is on record?
**A.** 29.6%

**Q.** Which inhibition does the source give for `S=C(Nc1ccccc1Oc1ccccc1)NC1CCCC1` here?
**A.** 54.8%

**Q.** With `O=C(Oc1ccc2ccccc2c1Cl)N1CCCCCC1` as the compound, how does the inhibition read?
**A.** 37.4%

**Q.** For `CC1(C)CC(c2nc(-c3ccc(Cl)cc3)cs2)CCS1` (stereo not given), which inhibition is on record?
**A.** 48.4%

**Q.** For `O=C(N/N=C/c1c[nH]c2ccccc12)C1CC1(c1ccccc1)c1ccccc1` (stereo not given), which inhibition is on record?
**A.** 6.75%

**Q.** For `COc1ccc(CS(=O)(=O)/C(Cl)=C(/Cl)C(=O)Nc2ccc(OC)nc2)cc1`, which inhibition is on record?
**A.** 21%

**Q.** Which inhibition does the source give for `CCOC(=O)C1CCN(c2nc(-c3ccc(C)cc3)nc3ccccc23)CC1` here?
**A.** 33.9%

**Q.** For `S=C(NCCCc1ccccc1)Nc1ccc(Cl)cc1`, which inhibition is on record?
**A.** 49.8%

**Q.** Which inhibition does the source give for `S=C(Nc1ccc(Oc2ccccc2)cc1)NC1CCCCCC1` here?
**A.** 15.7%

**Q.** For `CC(C)C1Cc2c(sc3[nH]c(=S)n(Cc4ccccc4)c(=O)c23)CO1` (stereo not given), which inhibition is on record?
**A.** 29.2%

**Q.** Which inhibition does the source give for `Cc1cccc(NC(=S)NC2CCCC2)n1` here?
**A.** 58%

**Q.** For `COc1ccc2nc(NC(=O)CN(c3ccc(C)cc3)S(=O)(=O)c3c(C)nn(C)c3C)sc2c1`, which inhibition is on record?
**A.** 5.15%

**Q.** Which inhibition does the source give for `Cc1cc(N/N=C/c2ccccc2Br)nc2ccccc12` here?
**A.** 63.6%

**Q.** With `O=C(Nc1nc2ccc(F)cc2s1)c1ccccn1` as the compound, how does the inhibition read?
**A.** 72.6%

**Q.** Which inhibition does the source give for `COc1ccc(-c2nsc3c(N4CCCCC4C)ncnc23)cc1` (stereo not given) here?
**A.** 1.31%

**Q.** With `Cc1cccc(NC(=S)NC(C)CCc2ccccc2)c1` (stereo not given) as the compound, how does the inhibition read?
**A.** 67.3%

**Q.** With `COc1cccc(-c2nc(-c3ccccn3)no2)c1` as the compound, how does the inhibition read?
**A.** -13.1%

**Q.** For `Clc1ccc(CSc2nnc(CNc3cccc(Cl)c3)o2)cc1`, which inhibition is on record?
**A.** 50.4%

**Q.** With `CCN(CC)S(=O)(=O)c1cccc(C(=O)Nc2sc3c(c2C(N)=O)CCCC3)c1` as the compound, how does the inhibition read?
**A.** 16.4%

**Q.** For `Cc1ccc(-c2c(C(=O)NCc3ccc(F)cc3)oc(=O)c3ccccc23)cc1`, which inhibition is on record?
**A.** 18.8%

**Q.** For `CCc1ccc(NSc2ccccc2[N+](=O)[O-])cc1`, which inhibition is on record?
**A.** 54.8%

**Q.** Which inhibition does the source give for `COc1cccc(CN(C)c2nc(-c3cccs3)nc3ccccc23)c1` here?
**A.** 36.5%

**Q.** With `c1ccc(-c2nc(N3CCN(c4ccccc4)CC3)nc(-n3ccnc3)n2)cc1` as the compound, how does the inhibition read?
**A.** 53.3%

**Q.** Which inhibition does the source give for `COC(=O)c1sccc1NC(=S)N1CCN(c2cc(C)ccc2C)CC1` here?
**A.** 69.7%

**Q.** With `O=c1[nH]cnc2c1c(-c1ccccc1)cn2-c1ccc(Br)cc1` as the compound, how does the inhibition read?
**A.** 67%

**Q.** For `CC(C)(C)C1CCc2c(sc(NC(=O)c3cccs3)c2C(=O)N2CCCCC2)C1` (stereo not given), which inhibition is on record?
**A.** 21.8%

**Q.** With `CC(=O)c1c(C)[nH]c(C(=O)CSc2nnc(-c3ccc(Cl)cc3)n2CC2CCCO2)c1C` (stereo not given) as the compound, how does the inhibition read?
**A.** -3.46%

**Q.** For `CCCCSc1nnc(-c2ccc(C)cc2)c2ccccc12`, which inhibition is on record?
**A.** 14%

**Q.** For `CCOC(=O)c1c(C)[nH]c(C)c1C(=O)COC(=O)/C=C/c1ccc(Cl)cc1`, which inhibition is on record?
**A.** 35.5%

**Q.** Which inhibition does the source give for `CCNC(=S)N(CCc1c(C)[nH]c2ccc(Cl)cc12)Cc1ccco1` here?
**A.** 38.8%

**Q.** For `CCCCCC/C(C)=C1/SC(=S)NC1=O`, which inhibition is on record?
**A.** 85.1%

**Q.** With `COc1ccc(S(=O)(=O)Nc2cc(Sc3ncn[nH]3)c(O)c3ccccc23)cc1` as the compound, how does the inhibition read?
**A.** 87.5%

**Q.** For `Cc1ccn2c(Nc3ccccc3)c(-c3ccccn3)nc2c1`, which inhibition is on record?
**A.** 72.3%
